Where a chain is given by its changes, count along the chain named. Numbers in names are those of the source. These are yes or no findings as the source states them, for the method shown. Some entries that bind do so weakly or less than the wild type. For part of these data: Tags and fused reporters may be left off the sequences shown.
Columns and labels:
[1] = target: MBP-CC 95-124 (xMcm10 residues 95-124 fused to maltose binding protein) (Xenopus laevis) (UniProt Q5EAW4); test: AUC; sedimentation velocity of wild-type, 2D and 4A MBP-CC 95-124 and NTD (Figure 5), 42,000 rpm, 20°C, 0.6 mg/ml; which of the two buffers (pH 7.4 or pH 4.7) is not stated for this figure; both purified
[2] = target: Mcm10-NTD (aa 1-145) (Xenopus laevis) (UniProt Q5EAW4); test: as above
[3] = target: T1, Full-length xMcm10, yeast two-hybrid fusion (Xenopus laevis) (UniProt Q5EAW4); test: two-hybrid; Matchmaker 3, Gal4-binding domain baits (pGBKT7) and Gal4-activation domain preys (pGADT7) in AH109; scored on plates lacking adenine, leucine, histidine and tryptophan
T1 sequence: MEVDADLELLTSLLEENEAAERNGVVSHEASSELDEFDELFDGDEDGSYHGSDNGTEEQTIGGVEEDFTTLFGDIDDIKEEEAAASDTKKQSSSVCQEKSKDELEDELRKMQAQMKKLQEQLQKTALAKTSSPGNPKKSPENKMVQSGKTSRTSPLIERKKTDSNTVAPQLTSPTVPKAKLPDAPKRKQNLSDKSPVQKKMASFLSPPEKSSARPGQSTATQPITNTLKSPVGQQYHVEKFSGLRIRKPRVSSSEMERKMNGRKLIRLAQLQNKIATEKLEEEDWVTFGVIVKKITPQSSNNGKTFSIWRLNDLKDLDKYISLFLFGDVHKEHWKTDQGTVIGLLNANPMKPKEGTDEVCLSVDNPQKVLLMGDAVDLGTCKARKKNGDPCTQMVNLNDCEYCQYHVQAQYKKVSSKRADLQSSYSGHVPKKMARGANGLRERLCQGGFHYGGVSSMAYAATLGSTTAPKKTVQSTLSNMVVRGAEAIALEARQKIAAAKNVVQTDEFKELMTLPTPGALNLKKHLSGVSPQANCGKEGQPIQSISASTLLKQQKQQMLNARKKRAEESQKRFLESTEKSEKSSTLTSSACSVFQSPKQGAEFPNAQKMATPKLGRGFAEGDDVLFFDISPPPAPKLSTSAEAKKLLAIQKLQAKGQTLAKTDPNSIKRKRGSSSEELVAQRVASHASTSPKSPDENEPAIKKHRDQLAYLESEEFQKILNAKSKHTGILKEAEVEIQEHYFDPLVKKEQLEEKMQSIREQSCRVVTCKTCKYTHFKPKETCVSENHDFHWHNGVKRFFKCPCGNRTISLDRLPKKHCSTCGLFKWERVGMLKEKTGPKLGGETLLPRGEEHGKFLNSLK

[4] = target: Mcm10ΔN (aa 230-860) (Xenopus laevis) (UniProt Q5EAW4); test: AUC; sedimentation velocity, 42,000 rpm, 4°C; Mcm10ΔN 1.0 mg/ml in 25 mM Tris pH 7.5, 150 mM NaCl, 2 mM MgCl2, 5% glycerol, 4 mM BME; both purified
[5] = target: Mcm10ΔN (aa 230-860) (Xenopus laevis) (UniProt Q5EAW4); test: SEC-MALS; Superose6 10/300 GL, 0.4 ml/min, 25 mM Tris pH 7.5, 150 mM NaCl, 2% glycerol, 2 mM BME; both purified
[6] = target: MBP-CC 95-124 L104D/L108D (2D mutant) (Xenopus laevis) (UniProt Q5EAW4); test: AUC; sedimentation velocity of wild-type, 2D and 4A MBP-CC 95-124 and NTD (Figure 5), 42,000 rpm, 20°C, 0.6 mg/ml; which of the two buffers (pH 7.4 or pH 4.7) is not stated for this figure; both purified
[7] = target: MBP-CC 95-124 L104A/L108A/M115A/L118A (4A mutant) (Xenopus laevis) (UniProt Q5EAW4); test: as above
[8] = target: Mcm10-NTD (aa 1-145) L104D/L108D (2D mutant) (Xenopus laevis) (UniProt Q5EAW4); test: as above
[9] = target: Mcm10-NTD (aa 1-145) L104A/L108A/M115A/L118A (4A mutant) (Xenopus laevis) (UniProt Q5EAW4); test: as above

B1: MBP-CC 95-124 (xMcm10 residues 95-124 fused to maltose binding protein) (domain or fragment, Xenopus laevis, UniProt Q5EAW4 95-124, looked up)
chain: VCQEKSKDELEDELRKMQAQMKKLQEQLQK
notes: Mcm10, Xenopus laevis, coiled-coil region, residues 95-124 (95-122 in the final model); Trimer in the crystal; dimer in sedimentation velocity; MBPX(E) as in PDB 3H4Z; also called xMcm10-CC^95–124; wild-type CC; source: E. coli C41, purified (amylose resin, Superdex S200); not shown: MBP (mutant form MBPX(E) residues 1-367; uncleavable linker AAAMG), N-terminal, kept
**Q.** For B1, which binding [1] is on record?
**A.** binds

B2: Mcm10-NTD (aa 1-145) (domain or fragment, UniProt Q5EAW4 1-145)
chain: MEVDADLELLTSLLEENEAAERNGVVSHEASSELDEFDELFDGDEDGSYHGSDNGTEEQTIGGVEEDFTTLFGDIDDIKEEEAAASDTKKQSSSVCQEKSKDELEDELRKMQAQMKKLQEQLQKTALAKTSSPGNPKKSPENKMV
**Q.** With B2 as the binder, how does the binding [2] read?
**A.** binds

B3: Full-length xMcm10, yeast two-hybrid fusion (protein, UniProt Q5EAW4 1-860)
chain: T1 sequence
**Q.** For B3, which binding [3] is on record?
**A.** binds

B4: Mcm10ΔN (aa 230-860) (domain or fragment, UniProt Q5EAW4 230-860)
chain: SPVGQQYHVEKFSGLRIRKPRVSSSEMERKMNGRKLIRLAQLQNKIATEKLEEEDWVTFGVIVKKITPQSSNNGKTFSIWRLNDLKDLDKYISLFLFGDVHKEHWKTDQGTVIGLLNANPMKPKEGTDEVCLSVDNPQKVLLMGDAVDLGTCKARKKNGDPCTQMVNLNDCEYCQYHVQAQYKKVSSKRADLQSSYSGHVPKKMARGANGLRERLCQGGFHYGGVSSMAYAATLGSTTAPKKTVQSTLSNMVVRGAEAIALEARQKIAAAKNVVQTDEFKELMTLPTPGALNLKKHLSGVSPQANCGKEGQPIQSISASTLLKQQKQQMLNARKKRAEESQKRFLESTEKSEKSSTLTSSACSVFQSPKQGAEFPNAQKMATPKLGRGFAEGDDVLFFDISPPPAPKLSTSAEAKKLLAIQKLQAKGQTLAKTDPNSIKRKRGSSSEELVAQRVASHASTSPKSPDENEPAIKKHRDQLAYLESEEFQKILNAKSKHTGILKEAEVEIQEHYFDPLVKKEQLEEKMQSIREQSCRVVTCKTCKYTHFKPKETCVSENHDFHWHNGVKRFFKCPCGNRTISLDRLPKKHCSTCGLFKWERVGMLKEKTGPKLGGETLLPRGEEHGKFLNSLK
**Q.** Which binding [4] does the source give for B4 here?
**A.** no binding (tested: 1.0 mg/ml)

**Q.** What about the binding [5] of the same binder?
**A.** no binding

B5: Mcm10^2D (full-length xMcm10 L104D/L108D), yeast two-hybrid fusion (protein, UniProt Q5EAW4 1-860)
chain: T1 sequence with L104D, L108D
**Q.** How did the binding [3] turn out when B5 was run?
**A.** no binding

B6: Mcm10^4A (full-length xMcm10 L104A/L108A/M115A/L118A), yeast two-hybrid fusion (protein, UniProt Q5EAW4 1-860)
chain: T1 sequence with L104A, L108A, M115A, L118A
**Q.** Which binding [3] does the source give for B6 here?
**A.** no binding

B7: Mcm10ΔN (residues 230-860), yeast two-hybrid fusion (domain or fragment, UniProt Q5EAW4 230-860)
chain: B4 chain
**Q.** With B7 as the binder, how does the binding [3] read?
**A.** no binding

**Q.** With VCQEKSKDEDEDEDRKMQAQMKKLQEQLQK (domain or fragment, UniProt Q5EAW4 95-124) [MBP-CC 95-124 L104D/L108D (2D mutant)] as the binder, how does the binding [6] read?
**A.** no binding (tested: 0.6 mg/ml)

**Q.** With VCQEKSKDEAEDEARKMQAQAKKAQEQLQK (domain or fragment, UniProt Q5EAW4 95-124) [MBP-CC 95-124 L104A/L108A/M115A/L118A (4A mutant)] as the binder, how does the binding [7] read?
**A.** no binding (tested: 0.6 mg/ml)

B8: Mcm10-NTD (aa 1-145) L104D/L108D (2D mutant) (domain or fragment, UniProt Q5EAW4 1-145)
chain: B2 chain with L104D, L108D
**Q.** For B8, which binding [8] is on record?
**A.** no binding (tested: 0.6 mg/ml)

B9: Mcm10-NTD (aa 1-145) L104A/L108A/M115A/L118A (4A mutant) (domain or fragment, UniProt Q5EAW4 1-145)
chain: B2 chain with L104A, L108A, M115A, L118A
**Q.** For B9, which binding [9] is on record?
**A.** no binding (tested: 0.6 mg/ml)
